{"source": "PubChem BioAssay AID1347165", "about": "(National Center for Advancing Translational Sciences (NCATS), 2019)", "note": "Among all 220,000 compounds or so, about 5,700 (2.6%) were called active. The inconclusive results got no clear call from the source; some entries with a clear call stand among them for comparison. Calls come from the whole dose curve; as a rule, active = well fitted inhibition curve with a large enough effect; inconclusive = small, poorly fitted or top-dose-only effect; inactive = no such curve, though single readings can be large or run the other way. Potencies beside an inconclusive call are fits to weak or partial responses and may not hold up. Potency is the fitted concentration of half-maximal effect; tags give direction and shape of the fitted curve."}
{"target": "Lysine-specific demethylase 5B (Homo sapiens) (UniProt Q9UGL1)", "sequence (Q9UGL1 whole entry, looked up)": "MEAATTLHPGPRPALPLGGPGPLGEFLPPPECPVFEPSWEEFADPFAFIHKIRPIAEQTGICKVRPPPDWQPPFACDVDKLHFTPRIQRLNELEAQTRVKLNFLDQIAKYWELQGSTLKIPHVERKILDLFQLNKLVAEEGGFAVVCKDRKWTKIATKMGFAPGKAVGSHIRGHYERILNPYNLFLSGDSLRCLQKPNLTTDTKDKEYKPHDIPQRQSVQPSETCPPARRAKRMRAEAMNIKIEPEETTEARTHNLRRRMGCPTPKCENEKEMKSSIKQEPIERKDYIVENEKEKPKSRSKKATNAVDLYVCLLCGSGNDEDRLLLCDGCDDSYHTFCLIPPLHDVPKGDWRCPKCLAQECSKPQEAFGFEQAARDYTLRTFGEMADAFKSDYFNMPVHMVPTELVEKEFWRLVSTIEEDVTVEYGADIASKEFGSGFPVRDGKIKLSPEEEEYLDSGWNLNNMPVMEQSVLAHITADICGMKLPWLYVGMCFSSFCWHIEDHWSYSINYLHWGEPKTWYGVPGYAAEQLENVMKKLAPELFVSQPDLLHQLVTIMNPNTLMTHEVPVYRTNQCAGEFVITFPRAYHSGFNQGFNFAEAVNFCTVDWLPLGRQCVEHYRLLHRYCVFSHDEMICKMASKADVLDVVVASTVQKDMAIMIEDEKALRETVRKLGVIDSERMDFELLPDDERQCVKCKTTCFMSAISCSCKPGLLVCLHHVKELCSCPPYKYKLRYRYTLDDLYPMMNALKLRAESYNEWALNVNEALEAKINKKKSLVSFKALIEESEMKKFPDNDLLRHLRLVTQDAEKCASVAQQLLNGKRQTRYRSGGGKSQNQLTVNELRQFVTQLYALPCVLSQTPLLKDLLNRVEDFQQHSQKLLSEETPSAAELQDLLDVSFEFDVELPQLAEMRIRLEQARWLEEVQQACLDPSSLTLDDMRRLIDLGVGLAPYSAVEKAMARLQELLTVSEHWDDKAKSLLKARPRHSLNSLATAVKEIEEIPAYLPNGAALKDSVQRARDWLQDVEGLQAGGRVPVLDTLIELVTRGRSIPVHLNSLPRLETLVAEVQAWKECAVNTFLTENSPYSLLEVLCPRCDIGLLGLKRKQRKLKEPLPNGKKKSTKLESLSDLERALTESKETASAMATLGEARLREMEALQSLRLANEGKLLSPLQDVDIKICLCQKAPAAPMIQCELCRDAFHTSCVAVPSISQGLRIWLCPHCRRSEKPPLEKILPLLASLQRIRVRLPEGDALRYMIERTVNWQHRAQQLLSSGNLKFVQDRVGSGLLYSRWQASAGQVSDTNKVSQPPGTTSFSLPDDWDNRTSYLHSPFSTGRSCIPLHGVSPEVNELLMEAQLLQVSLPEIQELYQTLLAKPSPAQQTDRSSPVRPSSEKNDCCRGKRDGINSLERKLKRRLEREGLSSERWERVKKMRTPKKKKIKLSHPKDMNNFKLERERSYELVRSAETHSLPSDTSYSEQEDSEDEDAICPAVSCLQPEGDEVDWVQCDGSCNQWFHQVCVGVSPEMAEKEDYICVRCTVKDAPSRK", "test": "Primary screen for KDM5B Histone Demethylases FDH-coupled qHTS; note: nearly all actives have a fitted effect of over 70% in size; for activity change, negative = inhibition: 0% is about no effect", "settings": "FDH-coupled NADH fluorescence (FDH is formaldehyde dehydrogenase); activity change, negative = inhibition: at 57.7 µM (top of the series) unless noted", "outline": "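Measured: NADH fluorescence change, 30 min, RT. System: KDM5BΔAP 200 nM final, H3K4me3 peptide, α-KG, Fe(II), ascorbate, NAD⁺ plus FDH, pH 7.5 HEPES. Compounds: titrated, 10 min pre-incubation with enzyme.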"}
{"smiles": "Cc1ccc(CN2C(=O)[C@@H]3C[C@@H](O)CN3C3(CN(CCC(C)C)C3)C2=O)o1", "Potency": "inconclusive: 35.5 µM [inhibitor, partial curve, poor fit]"}
{"smiles": "Cc1cc(C(=O)NCC(C)C)c2c(C3CCCNC3)noc2n1", "note": "(stereo not drawn)", "activity change, negative = inhibition": "inactive: -0.98% [at 149 µM]"}
{"smiles": "CC(=O)Nc1cccc(-c2nc3cc(Cl)cc(Cl)c3o2)c1", "activity change, negative = inhibition": "inactive: -13.9%"}
{"smiles": "O=C(CSc1nnc(-c2ccncc2)n1C1CC1)Nc1ccccc1C(=O)NC1CC1", "Potency": "inconclusive: 22.4 µM [inhibitor, single point]"}
{"smiles": "COc1ccc(Oc2nc(-c3cccnc3)nc3ccccc23)cc1", "Potency": "inconclusive: 31.6 µM [inhibitor, single point]"}
{"smiles": "Cc1ccc(Nc2c(-c3ccccc3O)nc3cc(C)ccn23)cc1", "Potency": "inconclusive: 35.5 µM [inhibitor, partial curve, poor fit]"}
{"smiles": "CSC(C)C(=O)Nc1cccc(Cl)c1", "note": "(stereo not drawn)", "activity change, negative = inhibition": "inactive: 12.9%"}
{"smiles": "Cn1ccc(NC(=O)C2(C)CCCc3cnc(NCc4ccccc4)nc32)n1", "note": "(stereo not drawn)", "Potency": "inconclusive: 39.8 µM [inhibitor, partial curve, poor fit]"}
{"smiles": "O=C(NCc1ccc(N2CCCC2)nc1)c1cc(Cl)ccc1O", "Potency": "inconclusive: 25.1 µM [inhibitor, single point]"}
{"smiles": "O=C(Oc1c(-c2ccccc2)c(=O)n2c3c(cccc13)CC2)c1ccc(F)cc1", "Potency": "inconclusive: 39.8 µM [inhibitor, partial curve, poor fit]"}
{"smiles": "CCOc1ccc(-n2nc3cc(C)c(NC(=O)c4ccc(Br)o4)cc3n2)cc1", "activity change, negative = inhibition": "inactive: -16.8%"}
{"smiles": "CC1COCCN1C(=O)Cc1nn(C)c(=O)c2ccccc12", "note": "(stereo not drawn)", "Potency": "inconclusive: 7.08 µM [inhibitor, full curve, poor fit]"}
{"smiles": "Cn1cc(S(=O)(=O)c2ccc(Cl)cc2)c(=O)c2cc(F)c(N3CCOCC3)cc21", "Potency": "inconclusive: 25.1 µM [inhibitor, partial curve, poor fit]"}
{"smiles": "COc1ccc(-c2cc3nc(C)c(CCC(=O)N4CCN(c5cc(C)ccc5C)CC4)c(C)n3n2)c(OC)c1", "activity change, negative = inhibition": "inconclusive: -38.4% [inhibitor]"}
{"smiles": "CCC(=O)N1CCOc2ccc(CN3CCc4ccccc4C3)cc2C1", "Potency": "inconclusive: 15.8 µM [inhibitor, partial curve]"}
{"smiles": "COc1cccc(CNC(=O)CCCn2c(=O)c3cccn3c3cccnc32)c1OC", "Potency": "inconclusive: 28.2 µM [inhibitor, partial curve, poor fit]"}
{"smiles": "CC(=O)Nc1ccc(NS(=O)(=O)c2cc3c4c(c2)CC(=O)N4CCC3)cc1", "activity change, negative = inhibition": "inactive: -6.02%"}
{"smiles": "COc1ccc(NC(=O)c2sc3ncnc(N(C)c4ccccc4)c3c2C)cc1Cl", "Potency": "inconclusive: 39.8 µM [inhibitor, single point]"}
{"smiles": "CCOc1ccc(-c2cc(C(=O)N3CCN(c4ccc(C)cc4)C(C)C3)c3ccccc3n2)cc1", "note": "(stereo not drawn)", "Potency": "inconclusive: 31.6 µM [inhibitor, partial curve, poor fit]"}
{"smiles": "O=C(C1CCc2ncc(-c3ccsc3)n2C1)N1CCN(c2ccccn2)CC1", "note": "(stereo not drawn)", "Potency": "active: 25.1 µM"}
{"smiles": "Cc1ccc(C2Cn3nnc(-c4noc(-c5ccoc5)n4)c3CO2)cc1", "note": "(stereo not drawn)", "activity change, negative = inhibition": "inactive: -7.76%"}
{"smiles": "Cc1c(Cl)c(=O)oc2cc(OCC(=O)NCc3cccs3)ccc12", "Potency": "inconclusive: 12.6 µM [inhibitor, partial curve, poor fit]"}
{"smiles": "Oc1cccc(/C=C/c2nc3cc(Cl)ccc3o2)c1", "Potency": "inconclusive: 39.8 µM [inhibitor, single point]"}
{"smiles": "CCCS(=O)(=O)NC[C@@H]1C=C(C)[C@H](Cc2nnc(-c3ccccc3F)o2)C[C@H]1C(C)C", "activity change, negative = inhibition": "inactive: -7.65%"}
{"smiles": "COc1cccn(CC(=O)N(C)Cc2csc(C(C)C)n2)c1=O", "Potency": "inconclusive: 12.6 µM [inhibitor, partial curve, poor fit]"}
{"smiles": "COc1ccc(-c2nc3c(=O)n(C)c(=O)[nH]c3n2C)cc1", "Potency": "inconclusive: 10 µM [inhibitor, partial curve, poor fit]"}
{"smiles": "COc1cc2oc(=O)c(CC(=O)NCCc3ccccc3OC)c(C)c2cc1Cl", "activity change, negative = inhibition": "inactive: 2.22%"}
{"smiles": "CCN(CC)S(=O)(=O)c1cc(-c2nc(-c3cccc(F)c3)no2)sc1C", "activity change, negative = inhibition": "inactive: -9.12%"}
{"smiles": "CCC(=O)N1CCc2cc(S(=O)(=O)NCCC(=O)Nc3ccc(OC)c(OC)c3)ccc21", "Potency": "inconclusive: 22.4 µM [inhibitor, single point]"}
{"smiles": "O=C1CCC(C(=O)N2CCN(c3ccc(Cl)cn3)CC2)CN1CCc1ccccn1", "note": "(stereo not drawn)", "Potency": "inconclusive: 31.6 µM [inhibitor, single point]"}
{"smiles": "Cc1ccc(C)c(N2CCN(C(c3ccc(F)cc3)c3nnc(-c4ccccc4)o3)CC2)c1", "note": "(stereo not drawn)", "Potency": "inconclusive: 44.7 µM [inhibitor, single point]"}
{"smiles": "O=C(NCCOc1cccc2cccnc12)C1CCCN(C2CCCC2)C1", "note": "(stereo not drawn)", "Potency": "inconclusive: 31.6 µM [inhibitor, partial curve, poor fit]"}
{"smiles": "O=C1NC2(CCCN([S+](=O)([O-])c3cccc(C(F)(F)F)c3)C2)COc2ccccc21", "note": "(stereo not drawn)", "Potency": "active: 35.5 µM"}
{"smiles": "Cc1cc2cc(-c3c(C)noc3C)nc(-c3ccc(CO)cc3)c2o1", "Potency": "inconclusive: 35.5 µM [inhibitor, partial curve]"}
{"smiles": "COc1ccc(NC(=O)c2sc3nc(C)c(C(=O)Nc4ccc(C)cc4C)c(-c4cccs4)c3c2N)cc1", "Potency": "inconclusive: 14.1 µM [inhibitor, partial curve, poor fit]"}
{"smiles": "CCOc1ccc(C(=O)COC(=O)Cn2cnc3ccccc3c2=O)cc1", "activity change, negative = inhibition": "inactive: 2.34%"}
{"smiles": "COc1ccc(OC)c(NC(=O)c2sc3nc4c(cc3c2N)CCCCCC4)c1", "Potency": "inconclusive: 1.58 µM [inhibitor, partial curve, poor fit]"}
{"smiles": "CC(C)c1nccc(-c2c(-c3ccccc3)ncn2CCCN2CCOCC2)n1", "Potency": "inconclusive: 22.4 µM [inhibitor, single point]"}
{"smiles": "COc1cc(SC)ccc1C(=O)NC1CCCc2ccccc21", "note": "(stereo not drawn)", "Potency": "inconclusive: 31.6 µM [inhibitor, partial curve, poor fit]"}
{"smiles": "O=C(CSc1nc2cc(Cl)ccc2s1)NC1CC1", "activity change, negative = inhibition": "inactive: 31%"}
{"smiles": "Clc1ccc(-c2nc3ccccn3c2Nc2ccc3c(c2)OCCO3)s1", "Potency": "inconclusive: 31.6 µM [inhibitor, partial curve, poor fit]"}
{"smiles": "COc1ccc2nc(-c3ccc4c(c3)OCO4)cc(C(=O)NCCN3CCOCC3)c2c1", "Potency": "inconclusive: 28.2 µM [inhibitor, partial curve, poor fit]"}
{"smiles": "CCc1cc(NCC(c2ccc(C)o2)N2CCOCC2)n2nccc2n1", "note": "(stereo not drawn)", "Potency": "active: 31.6 µM"}
{"smiles": "CS(=O)(=O)N(CC(=O)Nc1ccc2c(c1)OCO2)c1cccc(Cl)c1Cl", "activity change, negative = inhibition": "inactive: -21.1%"}
{"smiles": "COC(=O)NNC(=S)NC(=O)c1ccccc1", "Potency": "inconclusive: 35.5 µM [inhibitor, partial curve, poor fit]"}
{"smiles": "Cc1ccc2c(CN3CCN(c4ccccc4)CC3)cc(=O)oc2c1C", "activity change, negative = inhibition": "inactive: -0.0281%"}
{"smiles": "O=C(COc1ccccc1F)Nc1ccc(Cl)c(-c2nc3ccccc3[nH]2)c1", "Potency": "inconclusive: 44.7 µM [inhibitor, single point]"}
{"smiles": "CC(=O)Oc1ccc2c(-c3cc4ccccc4oc3=O)cc(=O)oc2c1", "activity change, negative = inhibition": "inactive: 12.5%"}
{"smiles": "O=C(NCc1ccco1)c1cc(-c2ccccn2)nc2cc(F)ccc12", "Potency": "inconclusive: 20 µM [inhibitor, partial curve, poor fit]"}
{"smiles": "CN(C)c1ccc(CN2C[C@@H](CN3CCCCC3)[C@@H](CO)C2)cn1", "Potency": "active: 28.2 µM"}
{"smiles": "Oc1cccc(-c2cnc3n[nH]c(-c4ccccc4)c3n2)c1", "activity change, negative = inhibition": "inactive: -31.4% [at 115 µM]"}
{"smiles": "Cc1nc(-c2ccc(CNC(=O)c3ccccn3)s2)cs1", "Potency": "inconclusive: 28.2 µM [inhibitor, partial curve, poor fit]"}
{"smiles": "O=C(C1CC1)N1CCC(Oc2cccnc2)C1", "note": "(stereo not drawn)", "activity change, negative = inhibition": "inactive: -11.7%"}
{"smiles": "COc1ccc(-n2c(=O)c3c(c4cc(OC)ccc4n3C)n(C)c2=O)cc1", "Potency": "inconclusive: 1 µM [inhibitor, full curve, poor fit]"}
{"smiles": "CCOC(=O)c1cccc(NC(=O)c2cnc(N3CCCCC3)c3ccccc23)c1", "Potency": "inconclusive: 35.5 µM [inhibitor, partial curve, poor fit]"}
{"smiles": "Cc1ccc2[nH]c(C)c(CC(=O)NCC(C)(C)CN(C)C)c2c1", "activity change, negative = inhibition": "inactive: 8.32%"}
{"smiles": "CN(C)C(=O)N1CCCC(c2nnc3n2CCNC3)C1", "note": "(stereo not drawn)", "Potency": "inconclusive: 44.7 µM [inhibitor, partial curve]"}
{"smiles": "CC1CCc2nc(NC(=O)c3ccc(N4C(=O)CCC4=O)cc3)sc2C1", "note": "(stereo not drawn)", "Potency": "inconclusive: 28.2 µM [inhibitor, single point]"}
{"smiles": "CCCOc1ccc(CN2CCCC(COc3ccccc3C(=O)NC3CC3)C2)cc1", "note": "(stereo not drawn)", "activity change, negative = inhibition": "inactive: 3.32%"}
{"smiles": "COc1ccc2c(COC(=O)c3ccc(OCC4CCCO4)cc3)cc(=O)oc2c1", "note": "(stereo not drawn)", "Potency": "inconclusive: 2 µM [inhibitor, full curve, poor fit]"}
{"smiles": "O=C(NC1CCCC1)C1(CCO)CCN(c2ncccn2)C1", "note": "(stereo not drawn)", "Potency": "inconclusive: 28.2 µM [inhibitor, partial curve, poor fit]"}
{"smiles": "COc1ccc2[nH]c3c(c2c1)CCN(C)C31CCN(C(=O)c2ccccn2)CC1", "Potency": "inconclusive: 25.1 µM [inhibitor, partial curve, poor fit]"}
{"smiles": "CCOC(=O)N1CCC2(CC1)N=C(CCC(C)C)NC2=O", "activity change, negative = inhibition": "inactive: 32.3%"}
{"smiles": "O=c1[nH]c2ccc(NCc3ccccc3F)cc2[nH]1", "Potency": "inconclusive: 14.1 µM [inhibitor, partial curve, poor fit]"}
{"smiles": "Cc1[nH]c2ccccc2c1C(=O)CN1C(=O)CC2(CCCCC2)C1=O", "activity change, negative = inhibition": "inactive: -2.14%"}
{"smiles": "COc1cccc(-c2ccn[nH]2)c1", "activity change, negative = inhibition": "inactive: -12.8%"}
{"smiles": "CCOc1ccc(CCNC(=O)c2cc3c(=O)n(C)c4ccccc4c3n2C)cc1", "Potency": "inconclusive: 39.8 µM [inhibitor, single point]"}
{"smiles": "CC(C)N[C@@H]1CC[C@@H]1NC(=O)c1cc2c(C(F)(F)F)nn(C)c2s1", "activity change, negative = inhibition": "inactive: -4.81%"}
